# Laboratory results as given in PubChem BioAssay AID686978 (National Center for Advancing Translational Sciences (NCATS), 2013).
# The whole screen tested about 420,000 compounds, of which about 64,000 (15%) were called active. The inconclusive results got no clear call from the source; some entries with a clear call stand among them for comparison. The call rests on the fitted dose curve; in most records, active means well fitted inhibition curve with a large enough effect; inconclusive means small, poorly fitted or top-dose-only effect; inactive means flat fitted curve, though single readings scatter. Potencies of inconclusive entries are left out as doubtful fits.
# Assay: qHTS for Inhibitors of human tyrosyl-DNA phosphodiesterase 1 (TDP1): qHTS in cells in absence of CPT; further: nearly all actives have a fitted effect of over 55% in size
# Conditions: DT40 Tdp1-/- hTDP1 cells, no CPT, ATP luminescence, 48 h; activity change, negative = growth inhibition: at 46.2 µM (top of the series)
# Outline: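 Seeded 400 DT40-hTDP1 cells/well (vehicle DMSO, no 20 nM CPT); pinned compounds; ≥48 hr at 37 °C; CellTiter-Glo luminescence as viability measure.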
# On the % scale 0 is the no-effect control and ±100 the full control effect; potency means the concentration at half of the fitted maximal effect; tags describe the fitted curve by direction and shape.
Compound,Potency,"activity change, negative = growth inhibition"
Cc1c(OCC(=O)NCC(O)c2ccccc2)ccc2c(-c3ccccc3)cc(=O)oc12 (stereo unspecified),"inconclusive [inhibitor, single point]",
CN(Cc1ccccc1)C(=O)c1ccc(NC(=O)C2=CSCCO2)cc1,,inactive: -2.47%
Cn1c(CO)nc2cc(N)ccc21,,inactive: -7.88%
CC(C)(C)C(C(=O)NC1CCCC1)N1CCN(c2ncccc2C#N)CC1 (stereo unspecified),"inconclusive [inhibitor, single point]",
CCCCc1nc2cc(C(=O)NCc3cn(C)nc3C)ccc2o1,"inconclusive [inhibitor, single point]",
O=C(Nc1ccc(N2CCN(c3ccc(O)cc3)CC2)cc1)Oc1ccccc1,"inconclusive [inhibitor, partial curve]",
CC(=O)Nc1c(C)nn(-c2ccccc2)c1N1CCC(C(=O)NCc2cccc(Cl)c2)CC1,,inactive: -19.7%
COc1ccc(Cl)cc1S(=O)(=O)N1CCC(C(=O)NCc2ccco2)CC1,,inactive: -0.274%
COc1cc(Cl)c(NC(=O)CCc2nc3cccnc3n2-c2ccccc2)c(OC)c1,"inconclusive [inhibitor, single point]",
O=C(CCc1nnc2n(Cc3ccc(F)cc3)c(=O)c3ccccc3n12)N1CCN(c2ccccn2)CC1,active: 20.6 µM,
Cc1ccc(NC(=O)c2cnc(SCC(=O)N3CCCc4ccccc43)n(C)c2=O)cc1,,inactive: -15.5%
CCn1c(CSc2nc3ccccc3s2)n[nH]c1=S,"inconclusive [inhibitor, single point]",
COc1ccc(C(CNC(=O)C2CC(=O)N(Cc3ccc(C)cc3)C2)N(C)C)cc1 (stereo unspecified),,inactive: 7.36%
CCOC(=O)c1ccc(NC(=S)N2CCCC2c2ccc(OC)c(OC)c2)cc1 (stereo unspecified),"inconclusive [inhibitor, single point]",
CC(C)(C)OC(=O)N1CCC(c2c(C(=O)N3CCN(c4ccccc4F)CC3)cnn2-c2ccccc2Cl)CC1,active: 16.4 µM,
COC(=O)c1c(NC(=O)C(=O)NCCCN2CCOCC2)sc2c1CCCC2,,inconclusive: -31.3% [inhibitor]
COCCNC(=O)c1ccc2c(c1)ncn2-c1ccc(C)c(Cl)c1,active: 14.6 µM,
CCOC(=O)N1CCC(N2C(=O)c3ccccc3C2Nc2ccccc2C)CC1 (stereo unspecified),"inconclusive [inhibitor, single point]",
O=C(CSc1nc2cc3ccccc3cc2[nH]1)Nc1ccc(F)cc1,active: 23.1 µM,
O=C(NCCc1nc2ccccc2n1Cc1c(F)cccc1Cl)c1ccco1,"inconclusive [inhibitor, single point]",
Cc1ccc2c(C)c(C(=O)N(C)C(C)c3ccncn3)oc2c1C (stereo unspecified),,inactive: -13.2%
CCOC(=O)c1c(NC(=O)c2noc(C)c2[N+](=O)[O-])sc(C(C)=O)c1C,"inconclusive [inhibitor, partial curve]",
Cc1ccc(S(=O)(=O)CCNC(=O)Cc2ccccc2)cc1,"inconclusive [inhibitor, single point]",

Compound,Potency,"activity change, negative = growth inhibition"
C=CCn1c(SCC(=O)N(CC)C2CCS(=O)(=O)C2)nc2scc(-c3ccccc3)c2c1=O (stereo unspecified),"inconclusive [inhibitor, single point]",
C[C@@H](C(=O)OCC(=O)Nc1cc(S(=O)(=O)N2CCOCC2)ccc1Cl)N1C(=O)C2CCCCC2C1=O (stereo partly specified),,inactive: -12.4%
CCc1ccc(-c2cc(C)no2)cc1S(=O)(=O)N1CCN(C(=O)c2ccco2)CC1,active: 20.6 µM,
CN(C)Cc1csc(NC(=O)Nc2ccccc2Cc2ccccc2)n1,"inconclusive [inhibitor, single point]",
Cc1ccc(S(=O)(=O)NCC(C)n2cncn2)cc1 (stereo unspecified),,inactive: 0.876%
COc1ccc(OCc2cc(C(=O)NC3Cc4ccccc4C3)no2)c(Cl)c1,active: 3.66 µM,
Cc1cc(Br)cn2c(Cc3cccc(F)c3)c(-c3ccc(Cl)cc3)nc12,"inconclusive [inhibitor, single point]",
O=C(Cc1ccc(Cl)cc1)Nc1ccccc1N1CCN(C(=O)c2ccccc2)CC1,active: 20.6 µM,
COc1ccc(CCN2CCCn3c2nc2c3c(=O)n(Cc3ccccc3F)c(=O)n2C)cc1OC,"inconclusive [inhibitor, single point]",
CC(Cc1cccs1)NC(=S)Nc1ccc(Cl)c(Cl)c1 (stereo unspecified),"inconclusive [inhibitor, single point]",
CC(=O)NCCNc1nc(-c2ccccc2Cl)nc2ccccc12,"inconclusive [inhibitor, single point]",
COc1ccc(OC)c(-c2csc(-c3cccs3)n2)c1,"inconclusive [inhibitor, partial curve]",
COc1ccccc1Cc1c(-c2ccco2)nc2c(C)cc(Br)cn12,active: 5.8 µM,
CCc1c(C)[nH]c(=S)c(C#N)c1C,,inactive: -9.03%
COC(=O)c1ccc(NS(=O)(=O)c2ccc3c(c2)n(C)c(=O)n3C)cc1,"inconclusive [inhibitor, single point]",
FCCCOc1ccc(-c2ccnc3ncnn23)cc1,"inconclusive [inhibitor, single point]",
Cc1cc(C)nc(SCC(=O)Nc2nonc2N)n1,,inactive: -23.6%
COc1ccc(S(=O)(=O)CCC(=O)N2CCN(c3ccc(C(C)=O)cc3)CC2)cc1,active: 14.6 µM,
Cc1nc(-c2ccccc2)sc1C(=O)/C=C/N(C)C,"inconclusive [inhibitor, single point]",
Cc1ccc2cc(CCNC(=O)c3ccc(Br)o3)c(=O)[nH]c2c1,"inconclusive [inhibitor, single point]",
Cc1onc(-c2ccccc2Cl)c1C(=O)N1CCN(c2nc3ccccc3s2)CC1,"inconclusive [inhibitor, single point]",
CCCc1[nH]nc2c1C(c1ccccc1OC)C(C#N)=C(N)O2 (stereo unspecified),"inconclusive [inhibitor, partial curve]",
CN(C(=O)C1Cc2c(-c3ccccc3Oc3ccccc3)ccnc2O1)c1ccccc1 (stereo unspecified),"inconclusive [inhibitor, single point]",
